The record followed here is publication PMC4029850 (Journal of immunological methods, 2014).

A word on the koff: it is a measure of how fast the partners let go of each other.

Where no end group is shown, it is not given here.

This assay has as its target DR1 (HLA-DRA*01:01;DRB1*01:01) (Homo sapiens, UniProt P01903+P01911, A100R/D57E/F55L/F60I/F76Y/I96L/L162R/M171V/P40L/Q125E/R42F/V115G/Y59C). The assay can be described thus: Peptide dissociation assay. Conditions: read-out: koff (intrinsic dissociation off-rate). The assay is classed as binding.

As for VSKMRMATPLLMQ [CLIP], the koff was 5.56e-05 s⁻¹.
